According to the antibiotic and cytotoxicity screens of Wong et al. (2023):
The list shows a part of the results.

How the values were obtained:
[1] = test system: HSkMC (human skeletal muscle cells); assay: cytotoxicity call (relative viability < 0.9); conditions: 10 µM
[2] = test system: S. aureus RN4220; assay: growth inhibition call (relative growth <= 0.2); conditions: 50 µM

Cc1nc(CCO)cs1
cytotoxicity call [1]: inactive
growth inhibition call [2]: inactive

COc1ccc(NC(=O)Nc2ccc3c(c2)CC(=O)N([C@H](C)CO)C[C@@H](C)[C@@H](CN(C)Cc2ccc(Cl)c(Cl)c2)O3)cc1
cytotoxicity call [1]: active
growth inhibition call [2]: inactive

O=C(C[C@H]1C[C@@H]2c3cc(NC(=O)Nc4ccc(C(F)(F)F)cc4)ccc3O[C@@H]2[C@@H](CO)O1)NC1CCCCC1
cytotoxicity call [1]: inactive
growth inhibition call [2]: inactive

COc1ccc(NC(=O)Nc2ccc3c(c2)C(=O)N([C@@H](C)CO)C[C@@H](C)[C@@H](CN(C)C(=O)Cc2ccccc2)OCCCC[C@H](C)O3)cc1
cytotoxicity call [1]: inactive
growth inhibition call [2]: inactive

C[C@@H]1CCCCO[C@H](CN(C)S(=O)(=O)c2cccs2)[C@@H](C)CN([C@@H](C)CO)C(=O)c2cc(NS(=O)(=O)c3cn(C)cn3)ccc2O1
cytotoxicity call [1]: inactive
growth inhibition call [2]: inactive

CC(=O)N1Cc2cc(C(=O)NCC(F)(F)F)nc(-c3cccc(-c4cc5ccccc5o4)c3)c2[C@H]1CCO
cytotoxicity call [1]: inactive
growth inhibition call [2]: inactive

C[C@@H]1CN([C@H](C)CO)C(=O)c2cc(NS(=O)(=O)c3cn(C)cn3)ccc2O[C@@H]1CN(C)S(C)(=O)=O
cytotoxicity call [1]: inactive
growth inhibition call [2]: inactive

COc1ccc(NC(=O)Nc2ccc3c(c2)C(=O)N([C@H](C)CO)C[C@H](C)[C@H](CN(C)CC2CCCCC2)OCCCC[C@H](C)O3)cc1
cytotoxicity call [1]: inactive
growth inhibition call [2]: inactive

C[C@H](CO)N1C[C@H](C)[C@H](CN(C)Cc2ccc(-c3ccccc3)cc2)Oc2ccc(NC(=O)Nc3ccc(F)cc3)cc2C1=O
cytotoxicity call [1]: inactive
growth inhibition call [2]: inactive

Cc1noc(C)c1NC(=O)N(C)C[C@@H]1Oc2ccc(NC(=O)c3ccncc3)cc2CC(=O)N([C@H](C)CO)C[C@@H]1C
cytotoxicity call [1]: inactive
growth inhibition call [2]: inactive

COCC(=O)N1C[C@H](C)[C@@H](OC)CN(C)C(=O)c2cc(NC(=O)Nc3ccccc3)ccc2OC[C@H]1C
cytotoxicity call [1]: inactive
growth inhibition call [2]: inactive

O=C(C[C@H]1C[C@@H]2c3cc(NS(=O)(=O)c4ccccc4)ccc3O[C@@H]2[C@@H](CO)O1)NC1CCCCC1
cytotoxicity call [1]: inactive
growth inhibition call [2]: inactive

C=CC1=C(C)C2=NC/1=C\C1=NC(=C\C3=NC(=C\C4=NC(=C\2)/C(C)=C4CCC(=O)O)/C(CCC(=O)O)=C3C)/C(C=C)=C1C
cytotoxicity call [1]: inactive
growth inhibition call [2]: inactive

COc1ccc(CN(C)C[C@@H]2Oc3ccc(NC(=O)C4CC4)cc3CC(=O)N([C@@H](C)CO)C[C@H]2C)cc1
cytotoxicity call [1]: inactive
growth inhibition call [2]: inactive

NC1CCC(N[C@@H]2C[C@H]2c2ccccc2)CC1 (stereo not given in full)
cytotoxicity call [1]: inactive
growth inhibition call [2]: inactive

O=C(NCCCn1ccnc1)C(=O)NC[C@H]1OCCN1S(=O)(=O)c1ccc(F)cc1
cytotoxicity call [1]: inactive
growth inhibition call [2]: inactive

O=C(O)CNc1ncccc1O
cytotoxicity call [1]: inactive
growth inhibition call [2]: inactive

COc1ccc(NC(=O)Nc2ccc3c(c2)C(=O)N([C@@H](C)CO)C[C@H](C)[C@H](CN(C)Cc2ccccc2)OCCCC[C@H](C)O3)cc1
cytotoxicity call [1]: inactive
growth inhibition call [2]: inactive

CCOC(=O)c1cccc(N)c1.CS(=O)(=O)O
cytotoxicity call [1]: inactive
growth inhibition call [2]: inactive

C[C@@H]1CN([C@H](C)CO)C(=O)c2cc(NC(=O)C3CCCCC3)ccc2O[C@@H](C)CCCCO[C@@H]1CN(C)C(=O)c1ccncc1
cytotoxicity call [1]: inactive
growth inhibition call [2]: inactive

COc1cccc(S(=O)(=O)Nc2ccc3c(c2)[C@H]2C[C@H](CC(=O)NCc4ccccc4F)O[C@@H](CO)[C@H]2O3)c1
cytotoxicity call [1]: inactive
growth inhibition call [2]: inactive

CC(C)C#Cc1cnc2c(c1)C(=O)N([C@@H](C)CO)C[C@@H](C)[C@@H](CN(C)C(=O)c1ccc3c(c1)OCO3)O2
cytotoxicity call [1]: inactive
growth inhibition call [2]: inactive

O=C(C1CC1)N1CCN(c2ncccn2)CC1
cytotoxicity call [1]: inactive
growth inhibition call [2]: inactive

CN1CCN(C(=O)C[C@H]2CC[C@@H]3[C@H](COC[C@H](O)CN3C(=O)C3CCOCC3)O2)CC1
cytotoxicity call [1]: inactive
growth inhibition call [2]: inactive

COc1ccc(CN(C)C[C@H]2OCCCC[C@H](C)Oc3ccc(NS(=O)(=O)c4ccc(OC)cc4)cc3C(=O)N([C@@H](C)CO)C[C@@H]2C)cc1
cytotoxicity call [1]: inactive
growth inhibition call [2]: inactive

C[C@H]1CN([C@@H](C)CO)C(=O)c2cc(NS(=O)(=O)c3ccc(F)cc3)ccc2O[C@@H]1CN(C)CC1CC1
cytotoxicity call [1]: inactive
growth inhibition call [2]: inactive

COc1ccc(CN(C)C[C@H]2OCCCC[C@H](C)Oc3ccc(NC(=O)Nc4ccc5c(c4)OCO5)cc3C(=O)N([C@H](C)CO)C[C@H]2C)cc1
cytotoxicity call [1]: inactive
growth inhibition call [2]: inactive

COc1ccc(S(=O)(=O)Nc2ccc3c(c2)C(=O)N([C@H](C)CO)C[C@@H](C)[C@@H](CN(C)CC2CC2)O3)cc1
cytotoxicity call [1]: inactive
growth inhibition call [2]: inactive

C[C@@H]1CCCCO[C@@H](CN(C)Cc2ccc(C(=O)O)cc2)[C@H](C)CN([C@H](C)CO)C(=O)c2cc(NC(=O)Nc3ccc4c(c3)OCO4)ccc2O1
cytotoxicity call [1]: inactive
growth inhibition call [2]: inactive

C[C@H]1CC=CC[C@H](c2ccc3c(c2)OCO3)NC(=O)[C@@H](Cc2ccccc2)N(C)C(=O)c2ccccc2O1
cytotoxicity call [1]: active
growth inhibition call [2]: inactive
